The other results are listed elsewhere or left out. The list includes weakly bound sequences.

The target of this assay is T1, MBP-FoxP3dN (UniProt Q99JB6).
T1 sequence: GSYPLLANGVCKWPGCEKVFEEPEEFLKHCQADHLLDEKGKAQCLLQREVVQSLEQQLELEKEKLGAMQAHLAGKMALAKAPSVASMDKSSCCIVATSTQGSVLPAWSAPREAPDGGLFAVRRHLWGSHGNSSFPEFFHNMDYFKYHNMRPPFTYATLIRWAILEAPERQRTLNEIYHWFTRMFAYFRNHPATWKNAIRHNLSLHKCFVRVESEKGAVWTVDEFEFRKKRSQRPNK
Put plainly: PD-seq (MBP pull-down with sequencing). As to conditions: 20 mM Tris-HCl pH 7.5, 100 mM NaCl, 1.5 mM MgCl2, 0.4 uM protein, 0.1 uM dsDNA library, 30 min, room temperature, amylose pull-down; high values mean tight binding; double strand, one strand shown.
Regarding “GATGATTGTTCTCCCAGCTGATGAATTTTCTCACTCGAGTAAACAAATTTTCCTAATCTTTCTGTTCAAGCGCCATCTAC”, the binding signal (RPM ratio (pull-down/input)) came out at 0.291. The result for “GATGATTGTTCTCCCAGCTGATGAATTGTGACAGTCGAGTAAACAAATTTTCCTAATCTTTCTGTTCAAGCGCCATCTAC” reads 0.817; that for “GATGATTGTTCTCCCAGCTGATGAATTTATGGTGTCGAGTAAACAAATTTTCCTAATCTTTCTGTTCAAGCGCCATCTAC”, 3.64; that for “GATGATTGTTCTCCCAGCTGATGAATTATGTAGGTCGAGTAAACAAATTTTCCTAATCTTTCTGTTCAAGCGCCATCTAC”, 1.28. For the sequence “GATGATTGTTCTCCCAGCTGATGAATTCCTTACCTCGAGTAAACAAATTTTCCTAATCTTTCTGTTCAAGCGCCATCTAC”, the binding signal (RPM ratio (pull-down/input)) was found to be 0.252. The result for “GATGATTGTTCTCCCAGCTGATGAATTGTGAAGGTCGAGTAAACAAATTTTCCTAATCTTTCTGTTCAAGCGCCATCTAC” reads 0.362.

In the case of “GATGATTGTTCTCCCAGCTGATGAATTGAATCCTTCGAGTAAACAAATTTTCCTAATCTTTCTGTTCAAGCGCCATCTAC”, the binding signal (RPM ratio (pull-down/input)) was determined as 0.33. The result for “GATGATTGTTCTCCCAGCTGATGAATTATAGAGCTCGAGTAAACAAATTTTCCTAATCTTTCTGTTCAAGCGCCATCTAC” reads 0.248; that for “GATGATTGTTCTCCCAGCTGATGAATTGGTAAGTTCGAGTAAACAAATTTTCCTAATCTTTCTGTTCAAGCGCCATCTAC”, 0.45; that for “GATGATTGTTCTCCCAGCTGATGAATTATCGGCATCGAGTAAACAAATTTTCCTAATCTTTCTGTTCAAGCGCCATCTAC”, 0.831. The result for “GATGATTGTTCTCCCAGCTGATGAATTGACCGATTCGAGTAAACAAATTTTCCTAATCTTTCTGTTCAAGCGCCATCTAC” reads 0.269; that for “GATGATTGTTCTCCCAGCTGATGAATTGAGAAGGTCGAGTAAACAAATTTTCCTAATCTTTCTGTTCAAGCGCCATCTAC”, 0.206; that for “GATGATTGTTCTCCCAGCTGATGAATTTCGTTGGTCGAGTAAACAAATTTTCCTAATCTTTCTGTTCAAGCGCCATCTAC”, 1.76. With “GATGATTGTTCTCCCAGCTGATGAATTTCCACTTTCGAGTAAACAAATTTTCCTAATCTTTCTGTTCAAGCGCCATCTAC”, the binding signal (RPM ratio (pull-down/input)) worked out at 0.28.

On to “GATGATTGTTCTCCCAGCTGATGAATTAAATATGTCGAGTAAACAAATTTTCCTAATCTTTCTGTTCAAGCGCCATCTAC”, for which the binding signal (RPM ratio (pull-down/input)) was 0.778.

“GATGATTGTTCTCCCAGCTGATGAATTCCCTGTGTCGAGTAAACAAATTTTCCTAATCTTTCTGTTCAAGCGCCATCTAC”: the binding signal (RPM ratio (pull-down/input)) is 0.347. The result for “GATGATTGTTCTCCCAGCTGATGAATTGTGTCCTTCGAGTAAACAAATTTTCCTAATCTTTCTGTTCAAGCGCCATCTAC” reads 1.89; that for “GATGATTGTTCTCCCAGCTGATGAATTTACGATCTCGAGTAAACAAATTTTCCTAATCTTTCTGTTCAAGCGCCATCTAC”, 0.505; that for “GATGATTGTTCTCCCAGCTGATGAATTTTAGGAATCGAGTAAACAAATTTTCCTAATCTTTCTGTTCAAGCGCCATCTAC”, 0.177. As for “GATGATTGTTCTCCCAGCTGATGAATTGTAACACTCGAGTAAACAAATTTTCCTAATCTTTCTGTTCAAGCGCCATCTAC”, the binding signal (RPM ratio (pull-down/input)) was found to be 1.07. “GATGATTGTTCTCCCAGCTGATGAATTGGGGAGCTCGAGTAAACAAATTTTCCTAATCTTTCTGTTCAAGCGCCATCTAC”: the binding signal (RPM ratio (pull-down/input)) came out at 0.252. Then “GATGATTGTTCTCCCAGCTGATGAATTTAAAATGTCGAGTAAACAAATTTTCCTAATCTTTCTGTTCAAGCGCCATCTAC”, with 0.242; and “GATGATTGTTCTCCCAGCTGATGAATTATACATTTCGAGTAAACAAATTTTCCTAATCTTTCTGTTCAAGCGCCATCTAC”, with 0.752. The result for “GATGATTGTTCTCCCAGCTGATGAATTGGAGCTCTCGAGTAAACAAATTTTCCTAATCTTTCTGTTCAAGCGCCATCTAC” reads 0.276; that for “GATGATTGTTCTCCCAGCTGATGAATTGCAGGCTTCGAGTAAACAAATTTTCCTAATCTTTCTGTTCAAGCGCCATCTAC”, 0.738.

Take “GATGATTGTTCTCCCAGCTGATGAATTAAAGGAATCGAGTAAACAAATTTTCCTAATCTTTCTGTTCAAGCGCCATCTAC”: the binding signal (RPM ratio (pull-down/input)) turned out to be 0.217. With “GATGATTGTTCTCCCAGCTGATGAATTGAGCACCTCGAGTAAACAAATTTTCCTAATCTTTCTGTTCAAGCGCCATCTAC”, the binding signal (RPM ratio (pull-down/input)) came to 0.853.

As to “GATGATTGTTCTCCCAGCTGATGAATTGACCTCTTCGAGTAAACAAATTTTCCTAATCTTTCTGTTCAAGCGCCATCTAC”, the binding signal (RPM ratio (pull-down/input)) was found to be 0.288. Then “GATGATTGTTCTCCCAGCTGATGAATTCAGTTCCTCGAGTAAACAAATTTTCCTAATCTTTCTGTTCAAGCGCCATCTAC”, with 0.923; and “GATGATTGTTCTCCCAGCTGATGAATTCGGTGACTCGAGTAAACAAATTTTCCTAATCTTTCTGTTCAAGCGCCATCTAC”, with 0.958; and “GATGATTGTTCTCCCAGCTGATGAATTAAGAATCTCGAGTAAACAAATTTTCCTAATCTTTCTGTTCAAGCGCCATCTAC”, with 1.59. Turning to “GATGATTGTTCTCCCAGCTGATGAATTGGCCTTTTCGAGTAAACAAATTTTCCTAATCTTTCTGTTCAAGCGCCATCTAC”, the binding signal (RPM ratio (pull-down/input)) was found to be 1.07. The result for “GATGATTGTTCTCCCAGCTGATGAATTAGCCAAATCGAGTAAACAAATTTTCCTAATCTTTCTGTTCAAGCGCCATCTAC” reads 0.246; that for “GATGATTGTTCTCCCAGCTGATGAATTACATCGGTCGAGTAAACAAATTTTCCTAATCTTTCTGTTCAAGCGCCATCTAC”, 0.432.

Turning to “GATGATTGTTCTCCCAGCTGATGAATTGGCCGGGTCGAGTAAACAAATTTTCCTAATCTTTCTGTTCAAGCGCCATCTAC”, the binding signal (RPM ratio (pull-down/input)) came out at 0.185. Then “GATGATTGTTCTCCCAGCTGATGAATTGACCTTCTCGAGTAAACAAATTTTCCTAATCTTTCTGTTCAAGCGCCATCTAC”, with 0.306; and “GATGATTGTTCTCCCAGCTGATGAATTGATGTTGTCGAGTAAACAAATTTTCCTAATCTTTCTGTTCAAGCGCCATCTAC”, with 2.55; and “GATGATTGTTCTCCCAGCTGATGAATTATGCGGATCGAGTAAACAAATTTTCCTAATCTTTCTGTTCAAGCGCCATCTAC”, with 0.753. Then “GATGATTGTTCTCCCAGCTGATGAATTATACGAGTCGAGTAAACAAATTTTCCTAATCTTTCTGTTCAAGCGCCATCTAC”, with 0.404. The result for “GATGATTGTTCTCCCAGCTGATGAATTTGGTGATTCGAGTAAACAAATTTTCCTAATCTTTCTGTTCAAGCGCCATCTAC” reads 1.66.

Source of the values: article PMC12820563.
